Results published in ChEMBL document CHEMBL4304741, “Modification and Biological Evaluation of a Series of 1,5-Diaryl-1,2,4-triazole Compounds as Novel Agents against Pancreatic Cancer Metastasis through Targeting Myoferlin” (J Med Chem, 2019).

Key:
Cytochrome P450 1A2 = target: T1, Cytochrome P450 1A2 (Homo sapiens, UniProt P05177); assay: Inhibition of CYP1A2 in human liver microsomes using phenacetin as substrate preincubated for 5 mins followed by NADPH-generating system addition and measured after 20 mins by LC-MS/MS analysis
T1 sequence (P05177 whole entry): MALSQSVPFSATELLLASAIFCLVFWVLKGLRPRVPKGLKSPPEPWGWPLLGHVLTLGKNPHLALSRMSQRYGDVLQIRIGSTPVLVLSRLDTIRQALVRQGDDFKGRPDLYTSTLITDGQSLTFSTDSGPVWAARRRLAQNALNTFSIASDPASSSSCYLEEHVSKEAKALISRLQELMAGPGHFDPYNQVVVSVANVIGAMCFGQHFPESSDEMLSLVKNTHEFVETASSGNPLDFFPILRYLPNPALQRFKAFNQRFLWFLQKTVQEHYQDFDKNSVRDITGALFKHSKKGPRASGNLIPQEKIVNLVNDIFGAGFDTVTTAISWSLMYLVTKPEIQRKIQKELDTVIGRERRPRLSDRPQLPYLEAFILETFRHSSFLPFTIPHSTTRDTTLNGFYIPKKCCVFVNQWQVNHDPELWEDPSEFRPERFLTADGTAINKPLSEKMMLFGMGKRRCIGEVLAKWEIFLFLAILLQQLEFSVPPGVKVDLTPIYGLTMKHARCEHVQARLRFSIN

Cytochrome P450 2B6 = target: T2, Cytochrome P450 2B6 (Homo sapiens, UniProt P20813); assay: Inhibition of CYP2B6 in human liver microsomes using bupropion as substrate preincubated for 5 mins followed by NADPH-generating system addition and measured after 20 mins by LC-MS/MS analysis
T2 sequence (P20813 whole entry): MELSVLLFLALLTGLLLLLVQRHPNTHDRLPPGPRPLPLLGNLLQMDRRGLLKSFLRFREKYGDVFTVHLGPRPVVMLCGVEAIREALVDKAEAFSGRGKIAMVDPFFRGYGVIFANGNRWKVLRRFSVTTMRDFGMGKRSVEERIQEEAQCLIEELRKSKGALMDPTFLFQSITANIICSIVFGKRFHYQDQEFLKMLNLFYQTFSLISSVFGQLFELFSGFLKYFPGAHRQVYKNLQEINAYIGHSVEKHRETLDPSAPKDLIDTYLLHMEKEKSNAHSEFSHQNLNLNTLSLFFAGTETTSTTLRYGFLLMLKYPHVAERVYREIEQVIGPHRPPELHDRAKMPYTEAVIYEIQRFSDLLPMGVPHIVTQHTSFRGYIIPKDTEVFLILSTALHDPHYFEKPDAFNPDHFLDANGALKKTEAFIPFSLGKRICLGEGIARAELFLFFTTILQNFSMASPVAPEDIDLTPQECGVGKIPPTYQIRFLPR

Cytochrome P450 2C9 = Cytochrome P450 2C9 (Homo sapiens, UniProt P11712); assay: Inhibition of CYP2C9 in human liver microsomes using tolbutamide as substrate preincubated for 5 mins followed by NADPH-generating system addition and measured after 20 mins by LC-MS/MS analysis
Sequence of Cytochrome P450 2C9 (P11712 whole entry): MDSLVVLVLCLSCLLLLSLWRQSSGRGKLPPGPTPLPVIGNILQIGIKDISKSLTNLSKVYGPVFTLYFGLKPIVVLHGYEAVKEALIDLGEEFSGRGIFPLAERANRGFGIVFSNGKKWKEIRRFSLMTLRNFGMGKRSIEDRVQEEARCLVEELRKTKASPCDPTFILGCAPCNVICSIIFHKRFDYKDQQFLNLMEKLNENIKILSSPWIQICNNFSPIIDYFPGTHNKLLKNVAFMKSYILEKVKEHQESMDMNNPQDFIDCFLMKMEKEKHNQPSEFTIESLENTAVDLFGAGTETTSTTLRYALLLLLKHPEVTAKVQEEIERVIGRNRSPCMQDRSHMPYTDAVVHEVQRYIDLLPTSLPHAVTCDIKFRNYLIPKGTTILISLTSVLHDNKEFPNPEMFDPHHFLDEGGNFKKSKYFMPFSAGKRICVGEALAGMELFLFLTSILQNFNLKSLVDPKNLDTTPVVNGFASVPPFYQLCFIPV

Cytochrome P450 2E1 = Cytochrome P450 2E1 (Homo sapiens, UniProt P05181); assay: Inhibition of CYP2E1 in human liver microsomes using chlorzoxazone as substrate preincubated for 5 mins followed by NADPH-generating system addition and measured after 20 mins by LC-MS/MS analysis
Sequence of Cytochrome P450 2E1 (P05181 whole entry): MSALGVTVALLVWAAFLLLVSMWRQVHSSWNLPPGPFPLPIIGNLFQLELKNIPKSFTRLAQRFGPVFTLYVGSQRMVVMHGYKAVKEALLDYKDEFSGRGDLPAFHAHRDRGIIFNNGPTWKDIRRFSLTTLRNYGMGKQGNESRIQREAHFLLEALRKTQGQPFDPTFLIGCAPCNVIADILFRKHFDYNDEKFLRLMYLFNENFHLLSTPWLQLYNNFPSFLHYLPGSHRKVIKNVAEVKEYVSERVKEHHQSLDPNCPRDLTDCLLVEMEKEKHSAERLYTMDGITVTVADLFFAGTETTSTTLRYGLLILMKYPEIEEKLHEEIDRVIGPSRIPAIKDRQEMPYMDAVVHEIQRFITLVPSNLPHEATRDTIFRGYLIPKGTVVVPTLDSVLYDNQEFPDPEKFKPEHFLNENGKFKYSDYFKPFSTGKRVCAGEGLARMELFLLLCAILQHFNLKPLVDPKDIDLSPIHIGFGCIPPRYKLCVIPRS

Cytochrome P450 2D6 = Cytochrome P450 2D6 (Homo sapiens, UniProt P10635); assay: Inhibition of CYP2D6 in human liver microsomes using tolbutamide as substrate preincubated for 5 mins followed by NADPH-generating system addition and measured after 20 mins by LC-MS/MS analysis
Sequence of Cytochrome P450 2D6 (P10635 whole entry): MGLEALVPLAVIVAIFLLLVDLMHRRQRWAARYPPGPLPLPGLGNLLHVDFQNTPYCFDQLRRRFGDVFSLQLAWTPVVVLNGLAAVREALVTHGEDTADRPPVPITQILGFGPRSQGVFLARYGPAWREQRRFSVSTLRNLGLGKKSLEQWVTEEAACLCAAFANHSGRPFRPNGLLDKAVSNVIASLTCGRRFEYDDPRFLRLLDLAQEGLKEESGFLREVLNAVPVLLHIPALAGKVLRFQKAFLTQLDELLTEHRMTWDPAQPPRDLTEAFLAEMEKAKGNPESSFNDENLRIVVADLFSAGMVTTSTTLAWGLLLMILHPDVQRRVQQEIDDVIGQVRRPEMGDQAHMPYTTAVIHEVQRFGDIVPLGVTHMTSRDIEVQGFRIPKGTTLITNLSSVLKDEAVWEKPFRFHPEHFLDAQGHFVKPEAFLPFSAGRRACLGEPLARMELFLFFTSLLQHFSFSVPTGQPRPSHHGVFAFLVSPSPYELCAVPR

Structure (SMILES)	IC50 (Cytochrome P450 1A2) [µM]	IC50 (Cytochrome P450 2B6) [µM]	IC50 (Cytochrome P450 2C9) [µM]	IC50 (Cytochrome P450 2E1) [µM]	IC50 (Cytochrome P450 2D6) [µM]
COc1ccc(-n2nc(C)nc2-c2cccc(C(=O)NCCCCc3ccccc3)c2)cc1	16.9	23.6	3.38	> 50	
COc1ccc(-c2nc(C)nn2-c2cccc(C(=O)NCCCCc3ccccc3)c2)cc1		29.4	3.93	> 50	24.1
COc1ccccc1N1C(=O)CSC1c1cccc(C(=O)NCCc2ccc(Br)cc2)c1 (configuration not stated)	> 50	33.9	5.35	> 50	
